Laboratory results taken from article PMC4336329 (PLoS ONE, 2015).
The whole screen tested about 310,000 compounds, of which about 14,000 (4.5%) showed an effect of 50% or more. The effect is printed as a negative number. Some of the results follow.

What follows are compounds tested against human ether-à-go-go-related gene (hERG) potassium channel (human, UniProt Q12809) (assay: primary screen, population patch clamp on CHO cells stably expressing hERG).
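Also: peak tail current of the secondary pulse compared with the same well before compound.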

Chain of human ether-à-go-go-related gene (hERG) potassium channel (Q12809 whole entry, looked up): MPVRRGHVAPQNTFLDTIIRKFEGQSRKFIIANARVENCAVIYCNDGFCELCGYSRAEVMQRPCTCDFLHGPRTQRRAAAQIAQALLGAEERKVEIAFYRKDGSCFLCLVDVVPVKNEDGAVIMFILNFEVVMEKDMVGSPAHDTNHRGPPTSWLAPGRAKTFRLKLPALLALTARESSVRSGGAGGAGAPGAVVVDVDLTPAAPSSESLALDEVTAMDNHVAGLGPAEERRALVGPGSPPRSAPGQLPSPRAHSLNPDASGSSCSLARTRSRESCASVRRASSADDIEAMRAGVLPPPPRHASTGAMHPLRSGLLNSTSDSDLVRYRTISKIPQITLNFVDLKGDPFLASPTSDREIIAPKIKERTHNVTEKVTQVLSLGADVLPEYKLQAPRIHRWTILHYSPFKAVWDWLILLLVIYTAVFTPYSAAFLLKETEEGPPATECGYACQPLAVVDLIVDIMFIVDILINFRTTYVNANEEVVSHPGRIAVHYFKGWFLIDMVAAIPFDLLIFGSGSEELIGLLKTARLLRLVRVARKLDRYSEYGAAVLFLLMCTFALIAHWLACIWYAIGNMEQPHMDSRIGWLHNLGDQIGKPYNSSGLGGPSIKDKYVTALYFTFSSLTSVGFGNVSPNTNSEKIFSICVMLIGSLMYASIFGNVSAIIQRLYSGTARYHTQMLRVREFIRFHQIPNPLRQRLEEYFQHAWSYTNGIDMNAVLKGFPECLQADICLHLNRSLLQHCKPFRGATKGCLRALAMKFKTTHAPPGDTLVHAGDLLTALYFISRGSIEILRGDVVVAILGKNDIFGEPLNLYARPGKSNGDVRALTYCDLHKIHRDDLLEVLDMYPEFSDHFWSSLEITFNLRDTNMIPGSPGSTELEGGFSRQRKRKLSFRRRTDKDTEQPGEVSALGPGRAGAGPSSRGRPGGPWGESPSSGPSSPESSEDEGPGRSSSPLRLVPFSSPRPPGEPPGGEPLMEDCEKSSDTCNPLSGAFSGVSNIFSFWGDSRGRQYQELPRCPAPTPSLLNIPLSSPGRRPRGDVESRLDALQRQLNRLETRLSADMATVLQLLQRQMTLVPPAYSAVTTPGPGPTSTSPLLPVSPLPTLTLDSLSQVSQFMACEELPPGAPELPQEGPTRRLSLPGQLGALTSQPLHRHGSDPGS

SMILES | hERG current change (%, negative = inhibition) at 10uM
COc1ccc(OC)c(S(=O)(=O)Nc2ccc(-c3ccc4nncn4n3)cc2)c1 | -45.5%
CCn1c(C)c(C)c2cc(C(=O)NC3CCCCCC3)ccc21 | -4.97%
Cc1ccc2c(Cl)cc(Cl)c(OCC(=O)Nc3cccc(S(N)(=O)=O)c3)c2n1 | 6.45%
O=C(Oc1ccc(/C=N/NC(=O)c2ccccc2O)cc1)c1ccccc1 | -9.76%
Cc1cc(C(=O)COc2cccnc2[N+](=O)[O-])c(C)n1-c1ccccc1 | -11.2%
COc1cc(C(=O)NC(C)c2ccc3ccccc3c2)cc(Cl)c1O (stereo not drawn) | 4.57%
CCCC(=O)Nc1ccc(Cl)c(NC(=S)NC(=O)C(C)C)c1 | 14.5%
CC(On1nnc2ccccc21)C(=O)N1CCN(Cc2ccccc2)CC1 (stereo not drawn) | 18.2%
O=C(c1cc(COc2ccc(F)cc2Cl)on1)N(CCO)Cc1cccs1 | -31.6%
COc1ccc(CN(C)C(=O)c2ccc(NS(=O)(=O)c3ccc4[nH]c(=O)[nH]c4c3)cc2)c(OC)c1 | -7.33%
COC(=O)c1ccc(NC(=O)C2CCCN(S(C)(=O)=O)C2)cc1 (stereo not drawn) | 17%
CSc1ncc(CN2CCCC(C(=O)c3ccc(C(C)(C)C)cc3)C2)cn1 (stereo not drawn) | -31.9%
CCCCOC(=O)Nc1cccc(C(=O)OCC)c1 | -1.82%
O=C(O)c1cc(S(=O)(=O)N2CCN(S(=O)(=O)c3ccccc3)CC2)ccc1Cl | 18.5%
Cc1cc(/C=N/NC(=O)c2ccccc2F)c(C)n1-c1ccccc1 | -5.49%
O=C(O)c1ccc2nc3c(nc2c1)-c1ccccc1C3=O | 23.8%
O=C(NCc1ccncc1)Nc1ccc2c(c1)OCO2 | 9.91%
CCOC(=O)Cc1nc2ccccc2[nH]1 | -16.4%
O=C(Cn1ncc2c3ccccc3n(Cc3ccccc3F)c2c1=O)N1CCC2(CC1)OCCO2 | -72.8%
CCN(CC)c1ccc(/C=N/N2CCN(Cc3ccc(C)cc3C)CC2)c(O)c1 | 1.12%
Cc1ccc(OCCOC(=O)c2cccc(S(=O)(=O)N3CC(C)OC(C)C3)c2)cc1 (stereo not drawn) | -2.59%
NC(=O)C1=C[C@@H](c2csc3ccccc23)C[C@@H](OCCCCO)O1 | -27.4%
O=C1NC(=Nc2ccc(F)cc2)SC1Cc1ccc(F)cc1 (stereo not drawn) | -3.61%

SMILES | hERG current change (%, negative = inhibition) at 10uM
c1ccc2c(c1)OCC(CNc1ncnc3nc[nH]c13)O2 (stereo not drawn) | 6.22%
O=C1CC(c2cccc(F)c2)SC(N(c2ccccc2)c2ccccc2)=N1 (stereo not drawn) | -9.7%
COc1ccc(Oc2coc3cc(OC(=O)/C=C/c4ccc(F)cc4)ccc3c2=O)cc1 | 3.31%
CC1(C)CNc2cc([N+](=O)[O-])ccc2S1 | 6.88%
COc1ccc(NC(C)=O)cc1NS(=O)(=O)c1cn(C)c(=O)n(C)c1=O | 12.9%
COc1ccc(C=NCC2OCCc3ccccc32)cc1OC (stereo not drawn) | 14.2%
CCOC(=O)c1ccc(NC(=O)CSc2nc(=O)n3cccc(C)c3n2)cc1 | -21.9%
CC(CC(=O)Nc1ccccc1)n1ccnc1 (stereo not drawn) | -5.07%
COc1ccc(C(C(=O)NC2CCCCC2)N(C(=O)c2sc(C)nc2C)c2ccc(C(C)=O)cc2)cc1 (stereo not drawn) | 12.6%
COc1cccc(NC(=O)c2cc([N+](=O)[O-])ccc2NC(=O)CNCC2CCCO2)c1 (stereo not drawn) | -16.4%
O=C(Cn1nnc(-c2ccccc2F)n1)Nc1cccc2ncccc12 | 6.23%
CCCc1cc(=O)[nH]c(SCc2cccnc2)n1 | 5.5%
CC1Cc2ccccc2N1c1ncnc2c1nnn2Cc1ccccc1Cl (stereo not drawn) | 7.99%
COc1cccc2cc(C(C)N(CCCN3CCOCC3)C(=S)Nc3ccc(C)c(C)c3)oc12 (stereo not drawn) | 17%
Cc1cc2c(NCC(C)O)ncnc2s1 (stereo not drawn) | 17.2%
O=C(CN(C(=O)c1csnn1)c1cccc2ccccc12)NC1CCCC1 | -2.34%
O=C(O)COc1ccccc1/C=N/NC(=O)/C(=C\c1ccc2c(c1)OCO2)NC(=O)c1ccccc1 | 12.7%
Cc1ccc(N2C(=O)CC(N3CCN(S(=O)(=O)c4ccccc4)CC3)C2=O)c(C)c1 (stereo not drawn) | 1.53%
COc1ccc(CCNC(=O)c2nonc2N)cc1 | -15.8%
O=C(Nc1ccc(Cl)cn1)c1cccc(S(=O)(=O)N2CCCC2)c1 | -50.9%
COCc1ccc(C(=O)N2CCCC(N3CCN(c4ccc(F)cc4)CC3)C2)o1 (stereo not drawn) | -47.3%
Cc1ccc(-c2[nH]ncc2CNCCc2cnn(-c3ccccc3)c2)cc1C | -66.4%
C=C1CCN([C@@H](CC(C)C)C(=O)NCCC(C)C)S(=O)(=O)c2ccccc21 | -6.27%

SMILES | hERG current change (%, negative = inhibition) at 10uM
O=C(NC(=S)Nc1ccccc1)c1ccc(Br)o1 | 13.7%
CSc1ccc(CNC(=O)c2ccc(NC(=O)C3=CSCCO3)cc2)cc1 | 28.4%
COc1nc(OC)nc(N2CCC(C(=O)NCc3cccs3)CC2)n1 | -45%
O=C(CNC(=O)c1sc2ccccc2c1Cl)NC1CC1 | 3.65%
CCCc1nc2cc(CC(=O)OC)ccc2o1 | 25.6%
CCOC(=O)CSc1nc2ccccc2c(=O)n1C1CCCC1 | -14.3%
CCCN1CCO[C@@H]2c3cc(O)ccc3OC[C@H]21.Cl | 12%
CC(C)NC(=O)CC(=O)N/N=C\c1ccccc1C(=O)O | 35.9%
CC1CCN(c2nc3c(cc2C#N)COC(C)(C)C3)CC1 | -4.31%
COc1ccc(-c2nnc(Nc3nc4c(OC)cccc4s3)o2)cc1 | 10.5%
CC(C)C(NC(=O)C1CCCCC1)C(=O)NCc1ccccn1 (stereo not drawn) | 9.17%
COc1ccc(C(=O)NCCN2CCOCC2)c(OC)c1OC | -5.11%
Cc1cc(C)nc(NC(=O)Cc2ccc([N+](=O)[O-])cc2)c1 | -67.9%
Cc1ccc2c(CC(=O)O)coc2c1 | 22.8%
Cc1ccccc1-n1c(=O)c2ccccc2n2c(=O)[nH]nc12 | 19.4%
NC(=O)c1ccc(=O)n(Cc2ccc(Cl)cc2Cl)c1 | 9.04%
Cc1c(Cl)cnc(NC(=O)COC(=O)C(NC(=O)c2ccco2)C(C)C)c1Cl (stereo not drawn) | -7.44%
Cn1c(C(=O)NCCN2CCN(c3ccccc3F)CC2)cc2c(=O)n(C)c3ccccc3c21 | -4.62%
Nc1ncnc(SCc2c(F)cccc2Cl)n1 | 12.4%
O=C(NCCN1CCOCC1)c1cc(Sc2ccc(F)cc2F)nc2ccccc12 | -42.8%
O=C(N/N=C/c1cccc(OC(=O)c2ccccc2Cl)c1)c1cccnc1 | -17%
CCOc1ccc(N/C(=N/c2nc(C)cc(C)n2)NC(=O)CC)cc1 | -13.3%
COc1ccc(CNC(=O)C2CCCN(S(=O)(=O)N3CC(C)CC(C)C3)C2)c(OC)c1 (stereo not drawn) | -6.97%

SMILES | hERG current change (%, negative = inhibition) at 10uM
CC(C)(C)NC(=O)NC(=O)COC(=O)c1ccco1 | -11.8%
Cc1c(NC(=S)N/N=C/c2cc([N+](=O)[O-])ccc2O)c(=O)n(-c2ccccc2)n1C | 10.7%
O=C1Cc2ccccc2C(c2ccccc2)N1 (stereo not drawn) | 9.81%
CCC(=O)N1CCc2cc(OC)c(OC)cc2C1COc1ccc(OC)cc1 (stereo not drawn) | 1.62%
CCN1CCN(S(=O)(=O)c2ccc(OC)c(Br)c2)CC1 | 6.53%
COc1ccccc1-n1cc(C(=O)N2CCCC(CO)(Cc3ccccc3C)C2)cn1 (stereo not drawn) | -3.01%
O=S(=O)(c1cnccc1N1CCN(/N=C/c2ccccc2)CC1)N1CCCCC1 | 8.51%
Cc1ccc(NC(=O)c2ccc(NC(=O)c3ccccc3)cc2)cc1C | 6.29%
OCC1(Cc2cccc(Cl)c2)CCCN(Cc2ccc3cc(F)ccc3n2)C1 (stereo not drawn) | -23.8%
CCCOCC(O)CCc1n[nH]c(=S)n1-c1ccccc1 (stereo not drawn) | 33.7%
COC(=O)CSc1nc2c(c(=O)[nH]c(=O)n2C)n1CCC(C)C | -3.93%
C=CCn1c(C)c(C(=O)OCC)c2cc(O)c3ccccc3c21 | 14.5%
O=C(CCc1nnc(CCC2CCCCC2)o1)NCCc1ccccn1 | -27.3%
O=C(/C=C/c1ccc2c(c1)OCO2)Nc1ccc(Cl)cn1 | 2.05%
C=CCn1c(COc2ccccc2)nnc1SCC(=O)Nc1ccc(S(N)(=O)=O)cc1 | 0.0712%
O=C(c1cc(-c2ccc(O)cc2)on1)N1CCN(c2ccc(F)cc2)CC1 | -23.6%
CC(C)CNC(=O)N1c2ccccc2Sc2ccccc21 | -6.5%
Cc1cc(C)n2c(=S)[nH]nc2n1 | 19.6%
O=C(Nc1cccc([N+](=O)[O-])c1)c1ccn[nH]1 | 21.4%
CC(CNC(=O)CN1C(=O)COc2ccc(S(=O)(=O)N3CCCCC3)cc21)c1ccccc1 (stereo not drawn) | 15%
CS(=O)(=O)c1ccc(-n2c(=O)n(Cc3ccccc3)c(=O)c3[nH]cnc32)cc1 | -45.7%
